Results as given in PubChem BioAssay AID1768 (National Center for Advancing Translational Sciences (NCATS), 2009).
Several values for one entry are separate records, joined by “and”; a condition that tells them apart may be missing. Identical values can stand only once. Out of some 270,000 compounds screened, about 620 (0.23%) were called active. Inconclusive results, whose numbers are uncertain, are shown with a selection of clear calls. Calls follow the shape of the dose curve; as a rule, active = well fitted inhibition curve with a large enough effect in the polarisation, with a control signal flat (not every such curve was filed as active); inconclusive = small, poorly fitted or top-dose-only effect, or effect the other way, or a change in a side signal; inactive = no such curve, though single readings can be large or run the other way; the % refers to the polarisation. Where the call is inconclusive, the potency comes from a doubtful curve fit. “Side channel” marks fits to a control or component signal instead of the main read-out.

These compounds were tested against Menin (Homo sapiens) (UniProt O00255) (assay: qHTS Assay for Inhibitors Targeting the Menin-MLL Interaction in MLL Related Leukemias: Competition With Texas Red Labeled MLL-derived Mutant Peptide). Conditions: fluorescence polarization; series mostly up to 61.6 µM.
Potency is read from the fitted curve at half-maximal effect; tags tell the direction and shape of the fitted curve or compound fluorescence and quenching.

Chain of UniProt O00255 (O00255 whole entry, looked up): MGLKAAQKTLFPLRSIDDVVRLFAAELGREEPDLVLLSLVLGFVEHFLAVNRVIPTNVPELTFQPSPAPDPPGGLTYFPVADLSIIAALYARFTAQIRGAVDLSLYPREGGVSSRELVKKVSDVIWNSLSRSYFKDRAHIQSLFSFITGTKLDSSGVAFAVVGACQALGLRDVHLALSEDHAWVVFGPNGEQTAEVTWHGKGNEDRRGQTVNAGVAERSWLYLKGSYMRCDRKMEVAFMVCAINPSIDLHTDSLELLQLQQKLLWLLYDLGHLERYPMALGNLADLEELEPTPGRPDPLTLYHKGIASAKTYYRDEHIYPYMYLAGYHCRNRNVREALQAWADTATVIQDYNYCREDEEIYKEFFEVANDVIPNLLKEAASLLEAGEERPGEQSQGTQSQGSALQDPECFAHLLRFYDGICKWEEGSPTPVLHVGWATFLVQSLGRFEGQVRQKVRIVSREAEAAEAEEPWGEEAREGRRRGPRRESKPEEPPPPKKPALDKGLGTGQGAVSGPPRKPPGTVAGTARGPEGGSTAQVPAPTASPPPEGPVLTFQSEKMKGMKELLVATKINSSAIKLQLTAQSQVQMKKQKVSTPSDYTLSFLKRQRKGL

Potency, inactive:
O=C(O)CN(c1ccccc1)C1SC(=O)NC1=O (configuration not stated)
CCOC(=O)C1CCCN(C(=O)Nc2ccccc2)C1 (configuration not stated)
COc1ccc(OC)c(/C=N/NC(=O)c2cc(-c3ccc(C)o3)nc3ccccc23)c1
CC(C)=CCn1cnc2c1c(=O)n(C)c(=O)n2C
CCOC(=O)C1=C(C)Nc2nc3ccccc3n2C1c1ccccc1 (configuration not stated)
Cc1ccc(S(=O)(=O)c2c(C)cc(C)nc2Cl)cc1
COc1cc(NC(=O)C2CCCN(S(=O)(=O)c3ccc4c(c3)CCCN4C(C)=O)C2)cc(OC)c1 (configuration not stated)
c1ccc(C(c2ccccc2)N2CCN(C(c3ccccn3)c3nnnn3C3CCCC3)CC2)cc1 (configuration not stated)
O=c1[nH]c(=O)n(-c2ccccc2)c2c1C(C(F)(F)F)(C(F)(F)F)N=C(CCC1CCCCC1)N2

Potency, inconclusive:
COC(=O)c1ccc(Oc2coc3cc(OCc4cnn(-c5ccccc5)c4)ccc3c2=O)cc1 31.6 µM [inhibitor, single point]
Cc1ccccc1-c1nc(CS(=O)(=O)CC(=O)N(C)C2CCCCC2)c(C)o1 7.94 µM [fluorescent, side channel, partial curve]
O=C1CN(c2nc(-c3cccnc3)nc3sc4c(c23)CCCC4)CCN1 11.2 µM [fluorescent, side channel, partial curve]
COCCn1c(SCC(=O)Nc2ccc(OC)cc2OC)nc2ccccc2c1=O 39.8 µM [inhibitor, partial curve]
Oc1ccc(NCc2cccc(OCc3ccccc3)c2)cc1 17.8 µM [quencher, side channel, partial curve]
CCN(CC)C(=O)CSc1nc(N)c2c3c(sc2n1)CC(C)CC3 (configuration not stated) 15.8 µM [fluorescent, side channel, partial curve]
CN(Cc1c(F)cccc1Cl)C(=O)c1ccc2ccccc2n1 10 µM [inhibitor, partial curve]
Cc1ccc(-n2c([O-])nc(-[n+]3ccccc3)c2C=O)cc1 4.47 µM [inhibitor, single point]
N=C1/C(=C/c2ccc(OCc3ccccc3)cc2)C(=O)N=C2SC(CC(=O)N3CCOCC3)=NN12 10 µM [quencher, side channel, partial curve]
O=C(NCCN1CCOCC1)c1ccccc1[N+](=O)[O-] 39.8 µM [inhibitor, partial curve, poor fit]
COc1ccc(Nc2nc(NCc3ccco3)nc(N/N=C/c3ccc(O)cc3)n2)cc1 3.16 µM [quencher, side channel, full curve]
CCOC(=O)C1CCN(C(=O)CN(c2ccc(Oc3ccccc3)cc2)S(C)(=O)=O)CC1 20 µM [fluorescent, side channel, partial curve]
CCN(CC)CCCC(C)Nc1c2ccc(Cl)cc2nc2ccc(OC)cc12 (configuration not stated) 8.91 µM [quencher, side channel, partial curve] and 39.8 µM [inhibitor, single point]
Nc1ccc2nn(-c3ccccc3)nc2c1 14.1 µM [quencher, side channel, partial curve]
CCOC(=O)N1CCc2c(sc(NC(=O)c3ccc(S(=O)(=O)N4CCCC4)cc3)c2C#N)C1 14.1 µM [quencher, side channel, partial curve]
Cc1cc(Nc2cccc([N+](=O)[O-])c2)n2c(nc3ccccc32)c1C#N 28.2 µM [quencher, side channel, partial curve]
Cc1ccc2c(=O)cc(C(=O)NCCc3ccc(S(N)(=O)=O)cc3)oc2c1C 39.8 µM [fluorescent, side channel, single point]
S=c1nc[nH]c2c1sc1nc(-c3ccccc3)c3c(c12)CCCC3 12.6 µM [quencher, side channel, partial curve]
O=C(NC1CCCCCC1)c1ccccc1-c1ccccc1 8.91 µM [inhibitor, partial curve]
CCC1=NNc2cccc3c(OC)ccc1c23 20 µM [quencher, side channel, single point]
COc1ccc(NC(=O)CN2C(=O)NC3(CCCC3)C2=O)cc1Cl 2.82 µM [quencher, side channel, full curve]
COc1cc(/C=N/NC(=O)c2cc(-c3ccccc3)nc3ccccc23)ccc1O 31.6 µM [quencher, side channel, partial curve]
O=P(/C(=N/O)Sc1ccccc1)(N1CCOCC1)N1CCOCC1 3.98 µM [inhibitor, full curve, poor fit]
O=S(=O)(c1cccc2ccccc12)N1CCCCC1 10 µM [inhibitor, partial curve]
C=CCN1C(=O)/C(=C2/Sc3ccc(OC)cc3N2C)SC1=Nc1cccc(O)c1 5.62 µM [quencher, side channel, partial curve]
COc1ccc(C2CC(c3ccc(Cl)cc3)=NN2C(C)=O)cc1 (configuration not stated) 39.8 µM [fluorescent, side channel, single point]
CCOCCCNC(=O)/C(C#N)=C/c1cc(OC)c(O)c([N+](=O)[O-])c1 28.2 µM [quencher, side channel, single point]
O=C(c1cccnc1)N1CCN(c2ccccc2Cl)CC1 39.8 µM [quencher, side channel, single point]
COc1ccc(/C(=N\Nc2ccccc2C(=O)O)c2ccccc2)cc1 25.1 µM [quencher, side channel, partial curve]
COc1ccccc1N1CCN(/N=C/c2ccc(O)c(O)c2)CC1 15.8 µM [quencher, side channel, partial curve]
COc1ccc2nc(NC(=O)c3ccc(NS(=O)(=O)c4cccs4)cc3)sc2c1 5.62 µM [quencher, side channel, partial curve]
CC(=O)c1ccccc1Oc1cc(NN2CCCCC2)c([N+](=O)[O-])cc1[N+](=O)[O-] 20 µM [quencher, side channel, partial curve]
COc1cccc(NC(=O)Nc2nc(SC(C)(C)C)ns2)c1 6.31 µM [quencher, side channel, partial curve]
COc1ccc(C(=O)OCC(=O)NC2CCCC2)c(OC)c1 12.6 µM [inhibitor, partial curve, poor fit]
CC(=O)c1ccc(NC(=O)C(C)Nc2ccc(Cl)cc2)cc1 (configuration not stated) 28.2 µM [quencher, side channel, partial curve]
COc1ccc(N2CCN(C(=O)c3cc(=O)c4cc(C)ccc4o3)CC2)cc1 1.26 µM [inhibitor, full curve]
COCCOC(=O)C1=C(C)NC(=O)NC1c1cc2c(cc1Br)OCO2 (configuration not stated) 2.82 µM [inhibitor, partial curve]
COc1cc(/C=N/NC(=O)c2cccc([N+](=O)[O-])c2)ccc1OC(=O)c1ccco1 25.1 µM [quencher, side channel, single point]
Cc1cccc(OCC(=O)NCC(=O)N/N=C/c2cc(Br)cc(Br)c2O)c1 20 µM [quencher, side channel, partial curve]
O=C(Cc1cccs1)N(CC1CCCO1)C1(C(=O)NC2CCCCC2)CCCCC1 (configuration not stated) 6.31 µM [fluorescent, side channel, partial curve]
CCCCC[C@H](O)/C=C/[C@H]1CCC(=O)[C@@H]1CCCCCCC(=O)N1CCCCC1CO (some centres not stated) 7.08 µM [fluorescent, side channel, partial curve]
COc1ccc(NC(=O)/C(C#N)=C\c2ccc(N3CCOCC3)o2)cc1 25.1 µM [quencher, side channel, partial curve]
CCC(CC)C(=O)Nc1cc(NC(=O)C(CC)CC)cc(C(=O)O)c1 25.1 µM [inhibitor, partial curve, poor fit]
CCCn1c(=O)c2ccccc2n2c(SCCNCCO)nnc12 0.631 µM [inhibitor, full curve, poor fit]
Fc1ccc2c(c1)C1C=CCC1C(c1cc3c(cc1Br)OCO3)N2 (configuration not stated) 22.4 µM [quencher, side channel, partial curve]
COc1cc(NC(=O)C2CCN(S(=O)(=O)c3cccc4nonc34)CC2)cc(OC)c1 22.4 µM [quencher, side channel, partial curve]
COCCN(C(=O)CSc1nc2ccccc2c(=O)n1C(C)COC)c1c(N)n(Cc2ccccc2)c(=O)[nH]c1=O (configuration not stated) 11.2 µM [fluorescent, side channel, partial curve]
O=C1c2ccccc2CN1C(CO)c1ccccc1 (configuration not stated) 39.8 µM [inhibitor, single point]
